# In the supplement of paper PMC8728848:
# This is one part of the list.
# B1: SP16664B-bot-474-25-474 (Bacteroides ovatus) (protein)
# chain: CEEDIEIGNKIDESSYLASTQLSGLLLDENTNKNSSVIELRNNEYSTNVVFRLSKLPQKGVDVQIAVEESYAAIYNTIHETDFEVFPAANVKIANNGTFVLAPDDKVTPSVKVTLTAFDGMEEDKTYIVPLTVTSSTEGVTFTETSKHMVLLVQDYRNKPNTNKGEDAVQTVLYFEVNDTNPLNALEFLTESGKYFFDHIVLFAANINWDPEKQRVYLANNENVQFLLDNNDKYLQPLRKAGMKIIISILGNHDEAGVAQLSDMGAREFARELAAYCRAYNLDGVAFDDEYSNSPDLSNPWLASPSAYAGSRLMYECKAVMPEKIVSLYNLGNMYSSSLQVIDGIEPGQYCDYAVADYGGAAGPGTGMTLKQCAGMSIELRRGSGNSSESTARSRKEAGYGYYMFFALDPSLYGSQVYRCQSVCKGLYDETLVYPSYYYKKNSTEREAIN
# What was measured:
# Experiment in all cases: glycan array binding signal (z-score within array); higher = stronger binding
# Conditions in all cases: glycan notation: IUPAC condensed, linker removed
# Neu5Ac(a2-3)Gal = target: Neu5Ac(a2-3)Gal
# Summary of the method: (§1)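 Arrays were curated from the Consortium for Functional Glycomics database, 3228 in total, and kept only where the protein sequence was available. Binding is expressed as a within-array Z-score. This score was averaged across arrays of the same protein sequence at different concentrations or buffers and across linkers, and negative values can be read as non-binding.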
# [1] = target: Neu5Ac(a2-3)Gal(b1-3)GalNAc
# Summary of the method: as §1
# [2] = target: Neu5Ac(a2-3)Gal(b1-3)GalNAc(b1-3)Gal(a1-4)Gal(b1-4)Glc
# Summary of the method: as §1
# [3] = target: Neu5Ac(a2-3)Gal(b1-3)GalNAc(b1-4)[Neu5Ac(a2-3)]Gal(b1-4)Glc
# Summary of the method: as §1
# [4] = target: Neu5Ac(a2-3)Gal(b1-3)GalNAc(b1-4)[Neu5Ac(a2-8)Neu5Ac(a2-3)]Gal(b1-4)Glc
# Summary of the method: as §1
# [5] = target: Neu5Ac(a2-3)Gal(b1-3)GalNAc6S
# Summary of the method: as §1
# [6] = target: Neu5Ac(a2-3)Gal(b1-3)GlcNAc
# Summary of the method: as §1
# [7] = target: Neu5Ac(a2-3)Gal(b1-3)GlcNAc(b1-2)Man
# Summary of the method: as §1
# [8] = target: Neu5Ac(a2-3)Gal(b1-3)GlcNAc(b1-2)Man(a1-3)[GlcNAc(b1-4)][Neu5Ac(a2-3)Gal(b1-3)GlcNAc(b1-2)Man(a1-6)]Man(b1-4)GlcNAc(b1-4)GlcNAc
# Summary of the method: as §1
# [9] = target: Neu5Ac(a2-3)Gal(b1-3)GlcNAc(b1-2)Man(a1-3)[Neu5Ac(a2-3)Gal(b1-3)GlcNAc(b1-2)Man(a1-6)]Man(b1-4)GlcNAc(b1-4)GlcNAc
# Summary of the method: as §1
# [10] = target: Neu5Ac(a2-3)Gal(b1-3)GlcNAc(b1-3)Gal(b1-3)GlcNAc
# Summary of the method: as §1
# [11] = target: Neu5Ac(a2-3)Gal(b1-3)GlcNAc(b1-3)Gal(b1-4)GlcNAc
# Summary of the method: as §1
# [12] = target: Neu5Ac(a2-3)Gal(b1-3)GlcNAc(b1-3)GalNAc
# Summary of the method: as §1
# [13] = target: Neu5Ac(a2-3)Gal(b1-3)GlcNAc(b1-4)Gal(b1-4)Glc
# Summary of the method: as §1
# [14] = target: Neu5Ac(a2-3)Gal(b1-3)GlcNAc(b1-6)GalNAc
# Summary of the method: as §1
# [15] = target: Neu5Ac(a2-3)Gal(b1-3)GlcNAc6S
# Summary of the method: as §1
# [16] = target: Neu5Ac(a2-3)Gal(b1-3)[Fuc(a1-4)]GlcNAc
# Summary of the method: as §1
# [17] = target: Neu5Ac(a2-3)Gal(b1-3)[Fuc(a1-4)]GlcNAc(b1-3)Gal(b1-3)[Fuc(a1-4)]GlcNAc
# Summary of the method: as §1
# [18] = target: Neu5Ac(a2-3)Gal(b1-3)[Fuc(a1-4)]GlcNAc(b1-3)Gal(b1-4)[Fuc(a1-3)]GlcNAc
# Summary of the method: as §1
# [19] = target: Neu5Ac(a2-3)Gal(b1-3)[GlcNAc(b1-6)]GalNAc
# Summary of the method: as §1
# [20] = target: Neu5Ac(a2-3)Gal(b1-3)[Neu5Ac(a2-6)]GalNAc
# Summary of the method: as §1
# [21] = target: Neu5Ac(a2-3)Gal(b1-3)[Neu5Ac(a2-6)]GlcNAc(b1-3)[Fuc(a1-3)[Gal(b1-4)]GlcNAc(b1-6)]Gal(b1-4)Glc
# Summary of the method: as §1
# [22] = target: Neu5Ac(a2-3)Gal(b1-3)]Neu5Ac(a2-3)Gal(b1-4)]GlcNAc
# Summary of the method: as §1
# Neu5Ac(a2-3)Gal(b1-4)Glc = target: Neu5Ac(a2-3)Gal(b1-4)Glc
# Summary of the method: as §1
# [23] = target: Neu5Ac(a2-3)Gal(b1-4)GlcNAc
# Summary of the method: as §1
# [24] = target: Neu5Ac(a2-3)Gal(b1-4)GlcNAc(b1-2)Man
# Summary of the method: as §1
# [25] = target: Neu5Ac(a2-3)Gal(b1-4)GlcNAc(b1-2)Man(a1-3)[GlcNAc(b1-4)][Neu5Ac(a2-3)Gal(b1-4)GlcNAc(b1-2)Man(a1-6)]Man(b1-4)GlcNAc(b1-4)GlcNAc
# Summary of the method: as §1
# [26] = target: Neu5Ac(a2-3)Gal(b1-4)GlcNAc(b1-2)Man(a1-3)[Neu5Ac(a2-3)Gal(b1-4)GlcNAc(b1-2)Man(a1-6)]Man(b1-4)GlcNAc(b1-4)GlcNAc
# Summary of the method: as §1
# [27] = target: Neu5Ac(a2-3)Gal(b1-4)GlcNAc(b1-2)Man(a1-3)[Neu5Ac(a2-3)Gal(b1-4)GlcNAc(b1-2)Man(a1-6)]Man(b1-4)GlcNAc(b1-4)[Fuc(a1-6)]GlcNAc
# Summary of the method: as §1
# [28] = target: Neu5Ac(a2-3)Gal(b1-4)GlcNAc(b1-2)Man(a1-3)[Neu5Ac(a2-6)Gal(b1-4)GlcNAc(b1-2)Man(a1-6)]Man(b1-4)GlcNAc(b1-4)GlcNAc
# Summary of the method: as §1
# [29] = target: Neu5Ac(a2-3)Gal(b1-4)GlcNAc(b1-2)[Neu5Ac(a2-3)Gal(b1-4)GlcNAc(b1-4)]Man(a1-3)[GlcNAc(b1-4)][Neu5Ac(a2-3)Gal(b1-4)GlcNAc(b1-2)[Neu5Ac(a2-3)Gal(b1-4)GlcNAc(b1-6)]Man(a1-6)]Man(b1-4)GlcNAc(b1-4)GlcNAc
# Summary of the method: as §1
# [30] = target: Neu5Ac(a2-3)Gal(b1-4)GlcNAc(b1-2)[Neu5Ac(a2-3)Gal(b1-4)GlcNAc(b1-4)]Man(a1-3)[GlcNAc(b1-4)][Neu5Ac(a2-3)Gal(b1-4)GlcNAc(b1-4)Man(a1-6)]Man(b1-4)GlcNAc(b1-4)GlcNAc
# Summary of the method: as §1
# [31] = target: Neu5Ac(a2-3)Gal(b1-4)GlcNAc(b1-2)[Neu5Ac(a2-3)Gal(b1-4)GlcNAc(b1-6)]Man(a1-6)[Neu5Ac(a2-3)Gal(b1-4)GlcNAc(b1-2)Man(a1-3)]Man(b1-4)GlcNAc(b1-4)GlcNAc
# Summary of the method: as §1
# [32] = target: Neu5Ac(a2-3)Gal(b1-4)GlcNAc(b1-2)[Neu5Ac(a2-3)Gal(b1-4)GlcNAc(b1-6)]Man(a1-6)[Neu5Ac(a2-3)Gal(b1-4)GlcNAc(b1-2)Man(a1-3)][GlcNAc(b1-4)]Man(b1-4)GlcNAc(b1-4)GlcNAc
# Summary of the method: as §1
# [33] = target: Neu5Ac(a2-3)Gal(b1-4)GlcNAc(b1-3)Gal
# Summary of the method: as §1
# [34] = target: Neu5Ac(a2-3)Gal(b1-4)GlcNAc(b1-3)Gal(b1-3)GlcNAc
# Summary of the method: as §1
# [35] = target: Neu5Ac(a2-3)Gal(b1-4)GlcNAc(b1-3)Gal(b1-4)GlcNAc
# Summary of the method: as §1
binder,measurement,setting,value
B1,glycan array binding signal (z-score),Neu5Ac(a2-3)Gal,-0.117
same,glycan array binding signal (z-score),[1],-0.351
same,glycan array binding signal (z-score),[2],-0.306
same,glycan array binding signal (z-score),[3],-0.238
same,glycan array binding signal (z-score),[4],-0.168
same,glycan array binding signal (z-score),[5],-0.446
same,glycan array binding signal (z-score),[6],-0.122
same,glycan array binding signal (z-score),[7],-0.044
same,glycan array binding signal (z-score),[8],-0.381
same,glycan array binding signal (z-score),[9],0.283
same,glycan array binding signal (z-score),[10],-0.657
same,glycan array binding signal (z-score),[11],-0.559
same,glycan array binding signal (z-score),[12],-0.544
same,glycan array binding signal (z-score),[13],-0.292
same,glycan array binding signal (z-score),[14],0.067
same,glycan array binding signal (z-score),[15],-0.268
same,glycan array binding signal (z-score),[16],-0.108
same,glycan array binding signal (z-score),[17],0.233
same,glycan array binding signal (z-score),[18],0.654
same,glycan array binding signal (z-score),[19],-0.449
same,glycan array binding signal (z-score),[20],0.02
same,glycan array binding signal (z-score),[21],0.101
same,glycan array binding signal (z-score),[22],-0.613
same,glycan array binding signal (z-score),Neu5Ac(a2-3)Gal(b1-4)Glc,0.069
same,glycan array binding signal (z-score),[23],-0.053
same,glycan array binding signal (z-score),[24],-0.113
same,glycan array binding signal (z-score),[25],-0.077
same,glycan array binding signal (z-score),[26],-0.171
same,glycan array binding signal (z-score),[27],-0.365
same,glycan array binding signal (z-score),[28],-0.438
same,glycan array binding signal (z-score),[29],-0.231
same,glycan array binding signal (z-score),[30],0.049
same,glycan array binding signal (z-score),[31],0.174
same,glycan array binding signal (z-score),[32],-0.505
same,glycan array binding signal (z-score),[33],-0.032
same,glycan array binding signal (z-score),[34],-0.055
same,glycan array binding signal (z-score),[35],-0.703
